Data from PMC12215836.
Results are given in words; binding and its absence hold for the method and conditions named. For part of these data: In cells and extracts the contact can be indirect. Some results given as binding are weak or reduced against the parent protein; the word gives no strength.

Sequences of proteins named here, by UniProt entry; tags and fusion partners are left off.
UniProt O00327: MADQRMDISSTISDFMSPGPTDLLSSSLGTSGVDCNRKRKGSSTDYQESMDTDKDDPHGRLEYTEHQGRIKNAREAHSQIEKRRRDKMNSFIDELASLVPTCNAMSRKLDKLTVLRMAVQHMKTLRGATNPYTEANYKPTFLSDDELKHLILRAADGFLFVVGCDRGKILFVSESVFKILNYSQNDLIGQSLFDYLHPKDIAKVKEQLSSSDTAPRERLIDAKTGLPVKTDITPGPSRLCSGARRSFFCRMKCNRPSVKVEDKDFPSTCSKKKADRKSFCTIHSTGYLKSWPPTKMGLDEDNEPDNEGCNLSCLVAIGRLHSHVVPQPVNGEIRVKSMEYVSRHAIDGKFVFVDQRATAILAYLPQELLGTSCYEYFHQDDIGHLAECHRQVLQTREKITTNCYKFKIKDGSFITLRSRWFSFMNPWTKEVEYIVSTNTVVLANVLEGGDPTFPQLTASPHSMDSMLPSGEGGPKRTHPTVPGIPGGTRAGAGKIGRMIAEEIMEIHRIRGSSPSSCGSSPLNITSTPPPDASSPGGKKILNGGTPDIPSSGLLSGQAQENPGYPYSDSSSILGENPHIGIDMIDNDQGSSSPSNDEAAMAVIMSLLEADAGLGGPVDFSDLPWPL
UniProt Q99814: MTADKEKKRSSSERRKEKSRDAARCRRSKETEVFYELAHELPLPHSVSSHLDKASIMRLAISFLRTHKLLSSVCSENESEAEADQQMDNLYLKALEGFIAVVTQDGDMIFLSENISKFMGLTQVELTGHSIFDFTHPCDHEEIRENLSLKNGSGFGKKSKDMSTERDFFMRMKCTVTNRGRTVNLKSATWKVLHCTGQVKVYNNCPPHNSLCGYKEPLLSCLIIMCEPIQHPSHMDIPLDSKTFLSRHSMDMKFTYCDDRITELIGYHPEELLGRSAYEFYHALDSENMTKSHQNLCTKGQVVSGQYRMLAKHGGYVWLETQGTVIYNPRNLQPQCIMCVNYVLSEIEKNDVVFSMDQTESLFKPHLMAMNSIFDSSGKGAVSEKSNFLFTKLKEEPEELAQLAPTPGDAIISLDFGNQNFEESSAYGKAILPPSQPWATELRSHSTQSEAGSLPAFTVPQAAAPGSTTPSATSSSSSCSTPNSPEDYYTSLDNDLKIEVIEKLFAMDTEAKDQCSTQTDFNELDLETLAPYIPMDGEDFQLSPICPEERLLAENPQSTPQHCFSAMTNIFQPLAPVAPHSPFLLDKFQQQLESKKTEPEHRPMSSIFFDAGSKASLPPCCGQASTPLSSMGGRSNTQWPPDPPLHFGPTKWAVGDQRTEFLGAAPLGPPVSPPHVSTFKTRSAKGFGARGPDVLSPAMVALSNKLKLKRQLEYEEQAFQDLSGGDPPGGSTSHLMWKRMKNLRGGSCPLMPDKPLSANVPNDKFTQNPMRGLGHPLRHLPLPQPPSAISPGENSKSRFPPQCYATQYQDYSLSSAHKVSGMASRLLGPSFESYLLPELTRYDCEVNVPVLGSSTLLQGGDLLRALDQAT

Columns and labels:
BMAL1-FLAG = BMAL1-FLAG (UniProt O00327); test: co-IP; 786O cells transfected with FLAG-tagged bHLH-PAS proteins; RIPA lysates, anti-Flag M2 agarose beads; endogenous HIF2α and CLOCK detected by immunoblot; cells at 3% O2 for 4 h or 21% O2 before lysis
[1] = target: Full-length human BMAL1 with an N-terminal Strep tag (human) (UniProt O00327); test: mass photometry; purified BMAL1-HIF2α sample at 20 nM; 20 mM Tris-HCl pH 8.0, 100 mM KCl, 0.5 mM TCEP; Refeyn OneMP; both purified
[2] = target: Full-length human BMAL1 with an N-terminal Strep tag (human) (UniProt O00327); test: co-elution on heparin chromatography; HIF2α and BMAL1 co-expressed in insect cells, both Strep-tagged; Strep-Tactin affinity (1 M NaCl wash, elution at 200 mM NaCl with 5 mM desthiobiotin), then heparin column with a linear salt gradient; fractions read by SDS-PAGE; both purified

“endogenous wild-type HIF2α (786O cells) (from UniProt Q99814 1-870)” was tested, and the binding (BMAL1-FLAG) was “binds”.

In the case of “Full-length human HIF2α with an N-terminal Strep tag (from UniProt Q99814 1-870)”, the binding [1] is reported as “binds” and the binding [2] is reported as “binds”.
